Test results: publication PMC11217408
Results are given in words; binding and its absence hold for the method and conditions named. In cells and extracts the contact can be indirect. Some entries that bind do so weakly or less than the wild type. For part of these data: Sequences can lack the tags named with a protein.

By UniProt entry, the sequences of proteins in these tests, tags left out.
UniProt O00165: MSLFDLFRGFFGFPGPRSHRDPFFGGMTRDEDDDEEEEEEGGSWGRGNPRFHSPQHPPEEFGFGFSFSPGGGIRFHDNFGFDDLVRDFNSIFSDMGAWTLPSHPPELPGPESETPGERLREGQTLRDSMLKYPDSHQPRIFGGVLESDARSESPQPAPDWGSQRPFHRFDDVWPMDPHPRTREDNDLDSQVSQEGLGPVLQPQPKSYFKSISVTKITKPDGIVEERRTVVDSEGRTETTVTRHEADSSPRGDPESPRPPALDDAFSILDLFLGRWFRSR
UniProt Q8ND56: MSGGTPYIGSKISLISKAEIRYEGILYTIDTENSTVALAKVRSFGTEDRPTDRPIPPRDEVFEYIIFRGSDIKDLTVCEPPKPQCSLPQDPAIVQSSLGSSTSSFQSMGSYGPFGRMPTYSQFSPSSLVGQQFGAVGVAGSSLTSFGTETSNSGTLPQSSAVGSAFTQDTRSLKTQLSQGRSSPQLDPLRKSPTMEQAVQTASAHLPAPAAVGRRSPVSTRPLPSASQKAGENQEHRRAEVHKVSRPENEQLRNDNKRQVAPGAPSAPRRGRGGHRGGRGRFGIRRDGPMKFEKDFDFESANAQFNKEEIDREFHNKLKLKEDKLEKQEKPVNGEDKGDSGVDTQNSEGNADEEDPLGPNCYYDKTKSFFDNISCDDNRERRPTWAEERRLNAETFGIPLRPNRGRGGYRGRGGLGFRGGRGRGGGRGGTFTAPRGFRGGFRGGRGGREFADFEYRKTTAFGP
UniProt P26196: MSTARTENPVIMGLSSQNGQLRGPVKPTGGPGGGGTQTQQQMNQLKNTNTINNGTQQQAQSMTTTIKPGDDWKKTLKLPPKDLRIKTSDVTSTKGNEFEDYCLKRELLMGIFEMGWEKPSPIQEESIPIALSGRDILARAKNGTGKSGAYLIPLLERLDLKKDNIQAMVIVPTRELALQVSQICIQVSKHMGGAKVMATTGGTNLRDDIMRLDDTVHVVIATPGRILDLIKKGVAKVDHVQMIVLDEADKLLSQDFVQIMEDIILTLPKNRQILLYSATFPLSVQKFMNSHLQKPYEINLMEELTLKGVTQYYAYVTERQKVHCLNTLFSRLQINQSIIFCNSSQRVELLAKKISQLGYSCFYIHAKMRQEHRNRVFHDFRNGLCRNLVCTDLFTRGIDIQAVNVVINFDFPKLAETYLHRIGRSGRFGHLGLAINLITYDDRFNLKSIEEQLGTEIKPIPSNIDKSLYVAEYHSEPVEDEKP

Columns and labels:
[1] = biological target: HAX1 (endogenous) (human (endogenous in HEK293T)) (UniProt O00165); experiment: co-IP; endogenous proteins; HEK293T cells treated with DMSO or oligomycin with or without TAK-243 (1 h); lysates captured with magnetic beads conjugated with IgG or anti-HAX1 antibodies, immunoblot
GFP-LSM14A (human) = GFP-LSM14A (human) (UniProt Q8ND56); experiment: co-IP; HEK293T cells transfected with tagged proteins (Flag-HAX1 + GFP-TRIM23; GFP-TRIM23 + flag-DCP1A, flag-EDC3 or flag-NBDY; GFP-LSM14A + flag-TRIM23; GFP-TRIM23 alone); lysis buffer 50 mM Tris-Cl pH 7.4, 150 mM NaCl, 1% Triton X-100, 1 mM DTT; IP with indicated antibodies or control IgG, western blot
Flag-EDC3 (human) = biological target: T1, Flag-EDC3 (human) (UniProt Q96F86); experiment: as above
T1 sequence: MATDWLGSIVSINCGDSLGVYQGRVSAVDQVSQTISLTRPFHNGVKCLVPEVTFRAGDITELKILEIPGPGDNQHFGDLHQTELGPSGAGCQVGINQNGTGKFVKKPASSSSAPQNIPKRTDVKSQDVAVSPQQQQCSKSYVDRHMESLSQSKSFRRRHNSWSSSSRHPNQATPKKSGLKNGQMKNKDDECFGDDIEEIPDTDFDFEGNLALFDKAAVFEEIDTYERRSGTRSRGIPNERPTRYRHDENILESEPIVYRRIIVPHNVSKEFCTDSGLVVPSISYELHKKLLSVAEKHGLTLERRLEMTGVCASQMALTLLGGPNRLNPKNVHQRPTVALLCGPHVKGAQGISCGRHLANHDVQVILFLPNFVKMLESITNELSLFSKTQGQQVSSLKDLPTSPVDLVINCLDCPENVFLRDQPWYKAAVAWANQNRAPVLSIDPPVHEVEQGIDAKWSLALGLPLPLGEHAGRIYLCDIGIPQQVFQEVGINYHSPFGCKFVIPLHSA

Flag-DCP1A (human) = biological target: T2, Flag-DCP1A (human) (UniProt Q9NPI6); experiment: as above
T2 sequence: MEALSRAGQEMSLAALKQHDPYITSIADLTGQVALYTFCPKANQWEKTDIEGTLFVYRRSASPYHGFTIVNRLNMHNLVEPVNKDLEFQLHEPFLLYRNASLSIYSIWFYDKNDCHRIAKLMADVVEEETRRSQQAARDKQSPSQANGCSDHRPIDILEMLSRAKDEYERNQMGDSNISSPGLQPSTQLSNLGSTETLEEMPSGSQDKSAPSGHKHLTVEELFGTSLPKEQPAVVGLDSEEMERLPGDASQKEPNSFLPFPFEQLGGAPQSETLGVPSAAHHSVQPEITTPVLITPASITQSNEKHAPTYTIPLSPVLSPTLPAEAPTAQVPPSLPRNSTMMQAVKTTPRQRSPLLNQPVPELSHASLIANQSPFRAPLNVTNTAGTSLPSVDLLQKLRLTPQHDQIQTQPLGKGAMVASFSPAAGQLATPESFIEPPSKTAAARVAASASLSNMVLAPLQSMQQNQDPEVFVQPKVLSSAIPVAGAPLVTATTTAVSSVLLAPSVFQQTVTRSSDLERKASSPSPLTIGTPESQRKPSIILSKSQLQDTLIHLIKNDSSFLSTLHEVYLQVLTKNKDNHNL

Flag-NBDY (human) = biological target: T3, Flag-NBDY (human); experiment: as above
T3 sequence: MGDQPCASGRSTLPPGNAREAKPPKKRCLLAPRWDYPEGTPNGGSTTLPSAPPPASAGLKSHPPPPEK

[2] = biological target: DDX6 (endogenous) (human (endogenous in HEK293T)) (UniProt P26196); experiment: as above

LSM14A (endogenous) (from UniProt Q8ND56 1-463)
binding [1]: binds

B1: Flag-TRIM23 (enzyme, UniProt P36406 1-574)
chain: MATLVVNKLGAGVDSGRQGSRGTAVVKVLECGVCEDVFSLQGDKVPRLLLCGHTVCHDCLTRLPLHGRAIRCPFDRQVTDLGDSGVWGLKKNFALLELLERLQNGPIGQYGAAEESIGISGESIIRCDEDEAHLASVYCTVCATHLCSECSQVTHSTKTLAKHRRVPLADKPHEKTMCSQHQVHAIEFVCLEEGCQTSPLMCCVCKEYGKHQGHKHSVLEPEANQIRASILDMAHCIRTFTEEISDYSRKLVGIVQHIEGGEQIVEDGIGMAHTEHVPGTAENARSCIRAYFYDLHETLCRQEEMALSVVDAHVREKLIWLRQQQEDMTILLSEVSAACLHCEKTLQQDDCRVVLAKQEITRLLETLQKQQQQFTEVADHIQLDASIPVTFTKDNRVHIGPKMEIRVVTLGLDGAGKTTILFKLKQDEFMQPIPTIGFNVETVEYKNLKFTIWDVGGKHKLRPLWKHYYLNTQAVVFVVDSSHRDRISEAHSELAKLLTEKELRDALLLIFANKQDVAGALSVEEITELLSLHKLCCGRSWYIQGCDARSGMGLYEGLDWLSRQLVAAGVLDVA
binding (GFP-LSM14A (human)): no binding

B2: GFP-TRIM23 (tripartite motif containing 23), full length (enzyme, UniProt P36406 1-574)
chain: MATLVVNKLGAGVDSGRQGSRGTAVVKVLECGVCEDVFSLQGDKVPRLLLCGHTVCHDCLTRLPLHGRAIRCPFDRQVTDLGDSGVWGLKKNFALLELLERLQNGPIGQYGAAEESIGISGESIIRCDEDEAHLASVYCTVCATHLCSECSQVTHSTKTLAKHRRVPLADKPHEKTMCSQHQVHAIEFVCLEEGCQTSPLMCCVCKEYGKHQGHKHSVLEPEANQIRASILDMAHCIRTFTEEISDYSRKLVGIVQHIEGGEQIVEDGIGMAHTEHVPGTAENARSCIRAYFYDLHETLCRQEEMALSVVDAHVREKLIWLRQQQEDMTILLSEVSAACLHCEKTLQQDDCRVVLAKQEITRLLETLQKQQQQFTEVADHIQLDASIPVTFTKDNRVHIGPKMEIRVVTLGLDGAGKTTILFKLKQDEFMQPIPTIGFNVETVEYKNLKFTIWDVGGKHKLRPLWKHYYLNTQAVVFVVDSSHRDRISEAHSELAKLLTEKELRDALLLIFANKQDVAGALSVEEITELLSLHKLCCGRSWYIQGCDARSGMGLYEGLDWLSRQLVAAGVLDVA
binding (Flag-EDC3 (human)): no binding
binding (Flag-DCP1A (human)): no binding
binding (Flag-NBDY (human)): no binding
binding [2]: no binding
